± gives the standard deviation of the averaged measurements. This is one part of the list.
Tested on: PfAP2-G AP2 domain (GST-tagged)
Assay: gcPBM binding intensity (ln(normalized median fluorescence intensity)); higher = stronger DNA binding
Procedure, shortened: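 Binding of GST-tagged P. falciparum DNA-binding domains, expressed in E. coli and used at about 25 μg on average, was carried out for 1 h in 1× PBS containing 1% milk, 0.2 mg/ml BSA, 0.5% salmon testes DNA and 0.03% Triton X-100. The target was an Agilent 4 × 180k array of primer-extended double-stranded 36-bp intergenic genomic probes plus negative controls, read with Alexa488 anti-GST antibody at 488 nm. Binding intensity is the highest Masliner-normalised natural-log median intensity across replicate spots of either probe orientation.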

Row | Sequence | gcPBM binding intensity (ln)
1 | CTTTTTTTTTGATGTTGTACATATATATTATATAAT [XGTACX_site1321] | 11.3 ± 0.84
2 | AGTTTAATATAAAATACACACTACTCTTATAAATAT [CACACA_site6803] | 9.87 ± 0.085
3 | GAAATAATAAATTAAAAATCGTTTATAACATTTAAC [CACACA_negctrl_site425] | 9.44 ± 0.16
4 | ATTTTCTTTCTATGCACACGCACGTATTTGCACCCA [CACACA_site3350] | 11 ± 0.71
5 | AGTAATATAATATAAGCACACGTGTATTTATTTAGT [CACACA_site4246] | 10.3 ± 0.16
6 | TGGGAGCACAGACACACACACACACCCATATATATA [CACACA_site335] | 10.4 ± 0.22
7 | TACAAAATAAAAATAATTCTTTCAAAAAATAATAAA [XGTACX_negctrl_site368] | 9.49 ± 0.18
8 | TGCACATTTATGTAACGTACAAAATATAATATGTTA [XGTACX_site8255] | 11 ± 0.38
9 | GTATAAAAGTAATGTAGTACTTATATATTTTTATTT [XGTACX_site8975] | 11.4 ± 0.69
10 | TCCTTATATTGGCACACACACACAATAAAATGAAAA [CACACA_site4715] | 10.5 ± 0.52
11 | GGTTGCTTCAGTGAATGTACATAGTGGTAAACAAGC [XGTACX_site166] | 11.1 ± 0.58
12 | AAAAAAAAAAGAAACACACACATATATATATATAAT [CACACA_site5052] | 9.67 ± 0.042
13 | TATATATATTCTTTAAAACACACGTAAAGAAGAATT [CACACA_site2718] | 10.18 ± 0.099
14 | ATAAGTGTATAAAAATGTACGTGTATAAAAATATGT [XGTACX_site8235] | 11.3 ± 0.66
15 | CATTTATTTATATACACACACACAAAAAAAAAAAAA [CACACA_site7279] | 9.96 ± 0.35
16 | TGCTATATTATTATCGCACACCGTTGATTCTAAATA [CACACA_site1207] | 9.805 ± 0.078
17 | TATTTTTTATTTTTTTGTACATATTTGATAATTAAT [XGTACX_site316] | 11 ± 0.54
18 | GTAAGCATCAAAAAAGGTACAGAAATTATAAATAAA [XGTACX_site6708] | 11.1 ± 0.78
19 | AAATATTTATATATATGTACACATATAATATTTTTA [XGTACX_site2338] | 11.3 ± 0.73
20 | TTTTTAATTTAAAAAAATAATATTTTATATTCCGAA [CACACA_negctrl_site108] | 9.53 ± 0.099
21 | ATATATGTTATTATTTGTACACACACATATATATCC [XGTACX_site7657] | 11.3 ± 0.79
22 | GAAAATTTATTTTTGGTGCATGTATTTATTTATTTT | 9.825 ± 0.049
23 | ATTTCTAATATTTTTGCACACTAAACAATAAATTTC [CACACA_site3943] | 10.2 ± 0.14

Row | Sequence | gcPBM binding intensity (ln)
24 | AAAACAAATAAGTAAACACACATATATAATATATAT [CACACA_site2586] | 9.775 ± 0.049
25 | AAAAAAAAAAAAACTAGTACATATATATAGTATGAA [XGTACX_site6279] | 11.1 ± 0.6
26 | ATAACCTAATAATACACACACATGAATATATATAAT [CACACA_site4689] | 10.05 ± 0.099
27 | CTTTTTTTTTTATGCACACACAATTATACATTCCTT [CACACA_site3877] | 10.4 ± 0.33
28 | AATATAGTCTCACATACACACATATATATTTATATA [CACACA_site2503] | 10.02 ± 0.042
29 | ATGTAATATATTATATGTACATATTTTTATGTAGAT [XGTACX_site5945] | 11.3 ± 0.87
30 | GAATATAAAAGGAACGGTACAGAAAAAAAAAAAAAA [XGTACX_site3917] | 10.6 ± 0.65
31 | TTTATTTTTTATATATCACTTAAAAAAAAAAAAAAA [CACACA_negctrl_site249] | 9.7 ± 0.42
32 | ATTTATATTTTATATACACACATGAACTTATATGGA [CACACA_site3167] | 10.1 ± 0.15
33 | AAAGATAAAATATATACACACACATAAATACGTACA [CACACA_site8275] | 11.3 ± 0.88
34 | ACAAGTGTATATGTTATATATATATATATATATATA [CACACA_negctrl_site1686] | 10.3 ± 1
35 | TTATTACGAACTCTGCAACATATATAAATAAATAAA [CACACA_negctrl_site44] | 10 ± 0.35
36 | AAAATAATATTTAATACACACATAATTACAATATAA [CACACA_site6510] | 9.925 ± 0.049
37 | TACGTATTCATGTATAGTACTCTTTTTTTTAATAAA [XGTACX_site3299] | 11.1 ± 0.71
38 | CTTATATTAATTATTACACACATATATATAAATGCA [CACACA_site770] | 9.92 ± 0.085
39 | AAAGAAAATAGGTGTACACATAATAAATACAGCTAT [CACACA_site5917] | 11.7 ± 1.1
40 | ATTATATTTGAATGGTGTACTATAATAATGTAGTTT [XGTACX_site8069] | 11.2 ± 0.72
41 | ACATATATATATATATAAATATATATGTATGTATTT [XGTACX_negctrl_site237] | 10.1 ± 0.27
42 | GAATAAATTAAATTCACACATAAAATACAAAATACA [CACACA_site5495] | 9.955 ± 0.078
43 | CATACACGCGGACACACACACACACGCATATATAAC [CACACA_site6427] | 11.5 ± 0.87
44 | TTCATTTTATAAAAAGCACACATATAGTTATATGCA [CACACA_site9228] | 9.79 ± 0.13
45 | AGTTTACATTAAATCACGCACACAAAAAAAAAAAAA [CACACA_site2419] | 10.2 ± 0.49
46 | ATGTCATATATATGTTGTACGAGTTTGTTTATGTAT [XGTACX_site1150] | 11.2 ± 0.68

Row | Sequence | gcPBM binding intensity (ln)
47 | ATTCATATTTTTCAAGTGCGCATTAAAATATTAACC [GTGCAC_site9741] | 10.3 ± 0.3
48 | TACCTTTTTTATGTTGCACACTGGGATGTTTTCTAA [CACACA_site1653] | 10.3 ± 0.15
49 | TTTCGATTATGTTTTTGTACGCAATATATTAATTCT [XGTACX_site3634] | 11.5 ± 1
50 | AATATATTTTTTTTTGGTACACAAGCACATCTATAC [XGTACX_site2183] | 11.3 ± 0.85
51 | AATGTGCAGAAAAGTGGTACATATGATTGTTAAGAG [XGTACX_site1038] | 11.5 ± 0.8
52 | CCATGATTATTAGATTGTACATAACATACAAATTGA [XGTACX_site314] | 10.8 ± 0.48
53 | TTAAAAATAAAACAAAGTACTCAAGTTATTGTCTTT [XGTACX_site1584] | 11.2 ± 0.54
54 | TATGATATGTATGGAAGTACGAAGAGGGATGATCAG [XGTACX_site1677] | 10.7 ± 0.27
55 | CACGCATACAGACACACACACACACCCATATATATA [CACACA_site636] | 10.4 ± 0.31
56 | CGTAAATTTTTCTAAGTGCATGTTAATTTTTCAATT | 10.1 ± 0.17
57 | TAAATACCTATATGGCGTACTATTATCATAGTATAT [XGTACX_site5423] | 11.2 ± 0.77
58 | TATTTATTATGATACTCATATTATTCTATGATTAAA [GTGCAC_negctrl_site486] | 10.2 ± 0.2
59 | GCACAAATCATCAAATGTACAGAAAATGCTGTCAAT [XGTACX_site5037] | 10.8 ± 0.49
60 | TTCCTTCATTGGAAAAGTACACAATATTGTCGTTTA [XGTACX_site8057] | 11.6 ± 0.99
61 | ATATAGGTATAATACACACACTAATATGTAACTGTA [CACACA_site7011] | 9.98 ± 0.085
62 | ATTTTCAAATTAAAATGTACAAATGAAAGAAAGGGA [XGTACX_site7048] | 10.7 ± 0.55
63 | TGAAATAAAATTTGTACACACATATATATATATATA [CACACA_site586] | 11.1 ± 0.81
64 | GTGAATCCTAAGTGTACACATCTTACAGATATATAT [CACACA_site4836] | 11.6 ± 0.82
65 | AACAGACATACATACACACATACATACAGACATACA [CACACA_site1942] | 10.2 ± 0.26
66 | ATATATATATATTTCGCACACATAATCTTATTAAAT [CACACA_site2579] | 10.2 ± 0.3
67 | TAAAATAAAACAAACACACACACACCGACACAAAAA [CACACA_site5993] | 10.4 ± 0.33
68 | TTTCTTAAATATATGCGTACTCAAAATTGTTCTACA [XGTACX_site7995] | 11.5 ± 0.93
69 | AAAAATATAATATAATGTACACATAAACAAAAAAAA [XGTACX_site3658] | 11.4 ± 0.84

Row | Sequence | gcPBM binding intensity (ln)
70 | TAACCACAAAAATAAAATCAAAAAAAAAAAAAAAAA [CACACA_negctrl_site1727] | 9.46 ± 0.18
71 | TATATATCAATATACACACACACATATTTATTTATA [CACACA_site6858] | 10 ± 0.14
72 | ACATTCTATACATACACACCCACACCCAAAAAAAAA [CACACA_site863] | 10.6 ± 0.49
73 | AACGCAGTTTAATATACACACCAAAAAAAAAAAAAG [CACACA_site5643] | 10.1 ± 0.31
74 | TTTCCTTTTTTAATATGTACACATATTATTATATCT [XGTACX_site3079] | 11.4 ± 0.83
75 | ATATATTCTTATTGCTGTACACATATTTTCTAAAAA [XGTACX_site4851] | 11.5 ± 0.95
76 | TACTATGCCCCATATAAACACACAAATAAAAAGAAT [CACACA_site8857] | 10.2 ± 0.21
77 | TATAAACCTACATACACACATACAATAAGTAAAATG [CACACA_site1921] | 10.2 ± 0.23
78 | ATGTATCATAAGAACTGTGTGGTTACAGACACGAAC [GTGCAC_negctrl_site416] | 10.5 ± 0.25
79 | AACTATATATATAATTCACACATGTTTTAAAATTTT [CACACA_site4971] | 10 ± 0.028
80 | CTATGCATTTATAGTGCATGTAAAATATAAGATAAT [TGCATGCA_site71] | 9.88 ± 0.13
81 | TATAATTAATTAGAAGTGCATTAGGTAACAACTGTC [GTGCAC_site9746] | 10.4 ± 0.3
82 | TTATATTAAACAAACACACACATATATATATATATA [CACACA_site2382] | 10.2 ± 0.63
83 | TTAACAAATGGACACACACACACACCCAAAAAAAAA [CACACA_site4443] | 11 ± 0.77
84 | TTTATAAAAAATTTTTTTTTTTTTTTTTAAATATAT [CACACA_negctrl_site146] | 9.5 ± 0.3
85 | TATATATATATTTATACACACATTAGTGTATCCATG [CACACA_site5609] | 10.2 ± 0.27
86 | TGTTACATATTATAAATACATTAACTATTATATGTA [CACACA_negctrl_site1735] | 9.56 ± 0.26
87 | TATATATATATATATTGTACATATTGTATATATTGT [XGTACX_site3212] | 10.8 ± 0.28
88 | ATATATATATATATATGTACATATATATATTTTTTA [XGTACX_site5987] | 11.3 ± 0.66
89 | TTGGCATACAGACACACACACACACGCCCACATATA [CACACA_site6425] | 10.6 ± 0.34

Source: the supplement of paper PMC11417369
